Laboratory results as given in PMC9911399, “Two distinct binding modes provide the RNA-binding protein RbFox with extraordinary sequence specificity”.
Positions count from the first letter of the chain named. The list shows a part of the results.

T1: RBFOX1 RRM (Homo sapiens, UniProt Q9NWB1 109-208)
T1 sequence: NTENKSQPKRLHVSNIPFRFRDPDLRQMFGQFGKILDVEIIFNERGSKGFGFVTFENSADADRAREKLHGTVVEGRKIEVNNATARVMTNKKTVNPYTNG

B1: GCAUUCG (DNA:RNA)
RNA: GGGAGACCGGAAUUCAGAUUGUCCGCAUUCGUUAAAUCCCGUCGUAGCCACCA
DNA 1: CAATCTGAATTCCGGTCTCCC
DNA 2: TGGTGGCTACGACGGGATT
B2: GUACUGA (DNA:RNA)
RNA: B1 RNA with C26U, U28C, C30G, G31A
DNA 1: CAATCTGAATTCCGGTCTCCC
DNA 2: TGGTGGCTACGACGGGATT
B3: CCGGGUG (DNA:RNA)
RNA: B1 RNA with G25C, A27G, U28G, U29G, C30U
DNA 1: CAATCTGAATTCCGGTCTCCC
DNA 2: TGGTGGCTACGACGGGATT
B4: GUAUGUU (DNA:RNA)
RNA: B1 RNA with C26U, U29G, C30U, G31U
DNA 1: CAATCTGAATTCCGGTCTCCC
DNA 2: TGGTGGCTACGACGGGATT
B5: AAUAAAA (DNA:RNA)
RNA: GGGAGACCGGAAUUCAGAUUGUCCAAUAAAAUUAAAUCCCGUCGUAGCCACCA
DNA 1: CAATCTGAATTCCGGTCTCCC
DNA 2: TGGTGGCTACGACGGGATT
B6: CAACUCA (DNA:RNA)
RNA: B1 RNA with G25C, C26A, U28C, G31A
DNA 1: CAATCTGAATTCCGGTCTCCC
DNA 2: TGGTGGCTACGACGGGATT
B7: UUUCAGC (DNA:RNA)
RNA: B5 RNA with A25U, A26U, A28C, A30G, A31C
DNA 1: CAATCTGAATTCCGGTCTCCC
DNA 2: TGGTGGCTACGACGGGATT
B8: AAAGAAG (DNA:RNA)
RNA: B5 RNA with U27A, A28G, A31G
DNA 1: CAATCTGAATTCCGGTCTCCC
DNA 2: TGGTGGCTACGACGGGATT
B9: GGUCGGU (DNA:RNA)
RNA: B5 RNA with A25G, A26G, A28C, A29G, A30G, A31U
DNA 1: CAATCTGAATTCCGGTCTCCC
DNA 2: TGGTGGCTACGACGGGATT
B10: UCUUCAG (DNA:RNA)
RNA: B1 RNA with G25U, A27U, U29C, C30A
DNA 1: CAATCTGAATTCCGGTCTCCC
DNA 2: TGGTGGCTACGACGGGATT
B11: GACUGAU (DNA:RNA)
RNA: B5 RNA with A25G, U27C, A28U, A29G, A31U
DNA 1: CAATCTGAATTCCGGTCTCCC
DNA 2: TGGTGGCTACGACGGGATT
B12: CAGUGAA (DNA:RNA)
RNA: B5 RNA with A25C, U27G, A28U, A29G
DNA 1: CAATCTGAATTCCGGTCTCCC
DNA 2: TGGTGGCTACGACGGGATT
B13: UGGCCGA (DNA:RNA)
RNA: B5 RNA with A25U, A26G, U27G, A28C, A29C, A30G
DNA 1: CAATCTGAATTCCGGTCTCCC
DNA 2: TGGTGGCTACGACGGGATT
B14: GUCCAUG (DNA:RNA)
RNA: B1 RNA with C26U, A27C, U28C, U29A, C30U
DNA 1: CAATCTGAATTCCGGTCTCCC
DNA 2: TGGTGGCTACGACGGGATT
B15: GGUACGA (DNA:RNA)
RNA: B5 RNA with A25G, A26G, A29C, A30G
DNA 1: CAATCTGAATTCCGGTCTCCC
DNA 2: TGGTGGCTACGACGGGATT
B16: GACUUGG (DNA:RNA)
RNA: B1 RNA with C26A, A27C, C30G
DNA 1: CAATCTGAATTCCGGTCTCCC
DNA 2: TGGTGGCTACGACGGGATT
B17: ACACGUU (DNA:RNA)
RNA: B1 RNA with G25A, U28C, U29G, C30U, G31U
DNA 1: CAATCTGAATTCCGGTCTCCC
DNA 2: TGGTGGCTACGACGGGATT
B18: UAUAUGC (DNA:RNA)
RNA: B5 RNA with A25U, A29U, A30G, A31C
DNA 1: CAATCTGAATTCCGGTCTCCC
DNA 2: TGGTGGCTACGACGGGATT
B19: CCUAGGC (DNA:RNA)
RNA: B5 RNA with A25C, A26C, A29G, A30G, A31C
DNA 1: CAATCTGAATTCCGGTCTCCC
DNA 2: TGGTGGCTACGACGGGATT
B20: CCGCGUU (DNA:RNA)
RNA: B1 RNA with G25C, A27G, U28C, U29G, C30U, G31U
DNA 1: CAATCTGAATTCCGGTCTCCC
DNA 2: TGGTGGCTACGACGGGATT

molecular target: T1, RBFOX1 RRM; experiment: EMSA; HiTS-Eq, 1 nM pool, 10 min; buffer printed only for the single-RNA assays: 10 mM Tris pH 7.5, 150 mM NaCl, 3.4 mM EDTA, 0.001% NP-40, 30 C; conditions: tags: His6 N-terminal (pET28a); label: 5' 32P
How it was run: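 Purified RbFox RRM, wild type or mutant, was incubated for 10 min in 50 µL with 1 nM of a 5′-radiolabelled RNA pool carrying 7 randomized nucleotides, whose flanks were annealed to DNA oligonucleotides, over a series of increasing protein concentrations. Unbound RNA was resolved on 8% native PAGE, cut out, reverse-transcribed, barcoded by PCR and sequenced on an Illumina HiSeq 2500. Relative association constants were derived from changes in read counts for each RNA species versus the control reaction and normalised to the cognate motif.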

Question: B1 was tested. Which binding signal did it give?
Answer: Its binding signal is 0.0118 KA relative to UGCAUGU.

Question: B2 was tested. Which binding signal did it give?
Answer: The binding signal was 0.022 KA relative to UGCAUGU.

Question: How did the binding signal turn out when B3 was run?
Answer: The binding signal was 0.0271 KA relative to UGCAUGU.

Question: B4 was tested. Which binding signal did it give?
Answer: The binding signal was 0.0125 KA relative to UGCAUGU.

Question: Which binding signal does the source give for B5 here?
Answer: The binding signal was 0.00195 KA relative to UGCAUGU.

Question: With B6 as the binder, how does the binding signal read?
Answer: Its binding signal is 0.0014 KA relative to UGCAUGU.

Question: For B7, which binding signal is on record?
Answer: The binding signal was 0.0149 KA relative to UGCAUGU.

Question: For B8, which binding signal is on record?
Answer: Its binding signal is 0.00539 KA relative to UGCAUGU.

Question: B9 was tested. Which binding signal did it give?
Answer: Its binding signal is 0.00845 KA relative to UGCAUGU.

Question: For B10, which binding signal is on record?
Answer: The binding signal was 0.0121 KA relative to UGCAUGU.

Question: B11 was tested. Which binding signal did it give?
Answer: Its binding signal is 0.0247 KA relative to UGCAUGU.

Question: Which binding signal does the source give for B12 here?
Answer: Its binding signal is 0.00713 KA relative to UGCAUGU.

Question: For B13, which binding signal is on record?
Answer: The binding signal was 0.0244 KA relative to UGCAUGU.

Question: For B14, which binding signal is on record?
Answer: The binding signal was 0.00933 KA relative to UGCAUGU.

Question: With B15 as the binder, how does the binding signal read?
Answer: Its binding signal is 0.00547 KA relative to UGCAUGU.

Question: How did the binding signal turn out when B16 was run?
Answer: Its binding signal is 0.0191 KA relative to UGCAUGU.

Question: With B17 as the binder, how does the binding signal read?
Answer: Its binding signal is 0.00226 KA relative to UGCAUGU.

Question: For B18, which binding signal is on record?
Answer: Its binding signal is 0.0169 KA relative to UGCAUGU.

Question: With B19 as the binder, how does the binding signal read?
Answer: Its binding signal is 0.0108 KA relative to UGCAUGU.

Question: B20 was tested. Which binding signal did it give?
Answer: Its binding signal is 0.008 KA relative to UGCAUGU.
